Test results taken from the supplement of paper PMC12217912.
The other results are listed elsewhere or left out. The full chains were built here from the parent and the listed change. Inactive controls read about 0.05.

B1: TEV protease; numbered along this chain (parent)
chain: MGESLFKGPRDYNPISSSICHLTNESDGHTTSLYGIGFGPFIITNKHLFRRNNGTLVVQSLHGVFKVKDTTTLQQHLVDGRDMIIIRMPKDFPPFPQKLKFREPQREERICLVTTNFQTKSMSSMVSDTSCTFPSGDGIFWKHWIQTKDGQCGSPLVSTRDGFIVGIHSASNFTNTNNYFTSVPKNFMELLTNQEAQQWVSGWRLNADSVLWGGHKVFMVKPEEPFQPVKEATQL

Variants of: B1
Assay: raw area under fraction-flipped curve 0-4 h after induction (AUC4h, not background-subtracted), DNA-recorder readout of cleavage of the substrate (dimensionless); higher = more cleavage of the substrate by the protease variant
Details: temperature: 34 °C; time window: 0-4 h after rhamnose induction
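Also: Bxb1 expression induced with 0.2% (w/v) L-rhamnose at OD600 near 0.5, cultures sampled hourly, flipped fraction per protease–substrate barcode pair counted by paired-end Illumina sequencing.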

Row | Variant | area with substrate ENAYFQS | area with substrate ENDYFQS | area with substrate ENFYFQS | area with substrate ENGYFQS | area with substrate ENIYFQS | area with substrate ENMYFQS | area with substrate ENQYFQS | area with substrate ENRYFQS | area with substrate ENSYFQS | area with substrate ENTYFQS | area with substrate ENYYFQS | area with substrate ENCYFQS | area with substrate ENEYFQS | area with substrate ENNYFQS | area with substrate ENVYFQS | area with substrate ENHYFQS | area with substrate ENKYFQS | area with substrate ENPYFQS | area with substrate ENWYFQS
1 | E224F | 0.0602 | 0.0654 | 0.0655 | 0.0837 | 0.101 | 0.0879 | 0.0567 | 0.0688 | 0.0626 | 0.0643 | 0.0615 |  |  |  |  |  |  |  | 
2 | P225F | 0.0618 | 0.0669 | 0.0543 | 0.0471 | 0.0669 | 0.0694 | 0.0723 |  | 0.069 |  |  | 0.0372 | 0.0587 | 0.0602 | 0.0667 |  |  |  | 
3 | P225I | 0.0435 | 0.0562 | 0.0286 | 0.0576 | 0.0954 |  | 0.0291 |  | 0.051 | 0.0455 |  |  | 0.056 |  |  | 0.0671 | 0.0533 |  | 
4 | F226W | 0.0582 | 0.063 | 0.0568 | 0.0589 | 0.117 |  | 0.0632 | 0.057 | 0.0618 |  | 0.0669 | 0.0693 | 0.0677 | 0.0627 | 0.0645 | 0.0459 | 0.0497 | 0.0527 | 0.0689
5 | Q227I | 0.105 | 0.0494 |  | 0.0477 |  |  | 0.052 | 0.0615 |  |  |  |  |  |  |  | 0.044 |  |  | 0.0515
6 | K230V | 0.0593 | 0.0663 | 0.0617 | 0.0548 |  |  | 0.0616 |  | 0.0661 | 0.0609 | 0.0562 | 0.0599 | 0.0595 | 0.0684 | 0.0918 | 0.0677 | 0.0441 | 0.0717 | 
7 | E231T | 0.048 | 0.071 | 0.0504 | 0.0583 | 0.094 | 0.0792 |  | 0.0589 |  |  | 0.0409 | 0.0725 | 0.0536 | 0.059 | 0.0559 |  |  |  | 
8 | T233H | 0.0493 | 0.0497 |  |  |  | 0.114 |  | 0.0605 | 0.0593 | 0.0657 |  | 0.0742 |  | 0.0632 | 0.0707 |  | 0.0658 |  | 0.0287
9 | Q234I | 0.0667 | 0.0553 |  | 0.0605 |  |  | 0.0561 |  | 0.0284 | 0.064 | 0.0547 | 0.0649 | 0.0584 | 0.0618 |  | 0.0503 | 0.0581 | 0.062 | 0.0467
10 | Q234K | 0.0694 | 0.0462 | 0.0542 | 0.0664 |  |  | 0.064 | 0.0612 | 0.0488 | 0.0522 | 0.0587 | 0.0663 | 0.0467 | 0.0594 | 0.0751 | 0.0433 | 0.0524 |  | 0.0523
11 | S4R |  | 0.0563 | 0.0522 | 0.0517 | 0.128 | 0.136 | 0.0707 | 0.0636 | 0.0632 | 0.068 | 0.037 | 0.0649 | 0.0697 | 0.0712 | 0.0793 | 0.0482 | 0.0564 | 0.0345 | 
12 | F6H |  |  |  |  | 0.101 | 0.0908 | 0.0651 |  |  | 0.071 |  | 0.0744 |  |  |  | 0.0761 |  | 0.0765 | 
13 | R10G |  | 0.0597 | 0.0433 | 0.0618 | 0.0622 | 0.0589 | 0.0575 | 0.0629 | 0.0651 | 0.0542 | 0.0492 | 0.0634 | 0.0659 | 0.0861 | 0.0751 |  |  | 0.0557 | 0.0832
14 | C20F |  | 0.0617 | 0.0441 | 0.0671 |  | 0.0462 | 0.0448 | 0.0536 | 0.0422 | 0.0576 | 0.053 | 0.0623 | 0.0484 |  | 0.0554 | 0.0445 | 0.0536 | 0.0425 | 0.0196
15 | T23I |  | 0.0594 |  | 0.0692 |  | 0.0797 | 0.0636 |  | 0.0546 | 0.0799 |  | 0.065 | 0.0428 | 0.0491 | 0.0761 | 0.0633 | 0.0557 | 0.0585 | 
16 | S26K |  | 0.0697 | 0.0468 | 0.0647 |  | 0.0647 | 0.0616 |  | 0.054 | 0.0683 |  | 0.0732 | 0.0652 | 0.0611 | 0.0628 | 0.0713 | 0.0676 | 0.059 | 0.0438
17 | G28C |  | 0.0517 |  | 0.0569 | 0.106 |  | 0.0679 | 0.0383 | 0.0608 |  |  | 0.0682 |  | 0.0639 |  |  |  |  | 0.0589
18 | H29L |  | 0.0599 |  |  | 0.145 | 0.0814 | 0.0432 | 0.0635 | 0.0557 | 0.0606 | 0.0603 | 0.0693 | 0.0914 |  | 0.0709 | 0.0598 |  | 0.051 | 0.0021
19 | S32H |  | 0.0605 | 0.0431 | 0.0569 | 0.0937 |  | 0.055 | 0.0602 | 0.0585 | 0.0711 |  | 0.0716 | 0.0587 | 0.0596 | 0.0791 | 0.0584 | 0.0873 | 0.058 | 
20 | L33P |  | 0.0538 |  | 0.0432 | 0.0399 | 0.0485 | 0.0485 | 0.0416 | 0.047 | 0.047 | 0.0548 | 0.0486 | 0.0503 | 0.0524 | 0.0551 |  | 0.0288 | 0.056 | 0.0424
21 | F38P |  | 0.0444 |  | 0.0504 |  | 0.0413 | 0.0443 | 0.0372 |  | 0.042 | 0.0364 | 0.04 | 0.0444 | 0.048 | 0.0257 | 0.0189 | 0.0618 | 0.0355 | 
22 | T44K |  | 0.0283 | 0.0393 | 0.0324 |  | 0.0492 | 0.0535 | 0.0225 | 0.0512 | 0.0438 |  | 0.0437 | 0.0383 | 0.053 |  |  | 0.0407 | 0.0509 | 
23 | H47F |  | 0.0573 |  | 0.0524 |  |  | 0.0614 | 0.0667 | 0.0622 | 0.0621 | 0.0508 | 0.0589 | 0.0484 | 0.0661 | 0.0552 | 0.0375 | 0.0626 | 0.0651 | 0.041
24 | F49V |  | 0.0585 |  | 0.0717 | 0.0504 | 0.0622 | 0.0623 |  | 0.0579 | 0.0642 |  | 0.0702 | 0.0564 | 0.0631 |  |  | 0.0684 |  | 
25 | T55G |  | 0.0628 | 0.0658 | 0.0708 | 0.109 | 0.0764 | 0.0569 | 0.0549 | 0.0564 | 0.0427 |  | 0.0585 | 0.0438 | 0.0569 | 0.0838 | 0.0516 | 0.0724 |  | 
26 | I84W |  | 0.0549 | 0.0571 | 0.0561 |  | 0.0545 | 0.0624 | 0.0572 | 0.048 | 0.0417 |  | 0.0592 | 0.0641 | 0.0538 | 0.0494 | 0.0515 | 0.0619 | 0.0184 | 0.0579
